Reference: the supplement of paper PMC3334620
In all, about 33,000 sequences were measured (“E-score (-0.5 to 0.5)”: median about -0.036, highest 2% from about 0.37 on). Some of the results follow.

Target: T1, Yer064c (UniProt P40041)
T1 sequence: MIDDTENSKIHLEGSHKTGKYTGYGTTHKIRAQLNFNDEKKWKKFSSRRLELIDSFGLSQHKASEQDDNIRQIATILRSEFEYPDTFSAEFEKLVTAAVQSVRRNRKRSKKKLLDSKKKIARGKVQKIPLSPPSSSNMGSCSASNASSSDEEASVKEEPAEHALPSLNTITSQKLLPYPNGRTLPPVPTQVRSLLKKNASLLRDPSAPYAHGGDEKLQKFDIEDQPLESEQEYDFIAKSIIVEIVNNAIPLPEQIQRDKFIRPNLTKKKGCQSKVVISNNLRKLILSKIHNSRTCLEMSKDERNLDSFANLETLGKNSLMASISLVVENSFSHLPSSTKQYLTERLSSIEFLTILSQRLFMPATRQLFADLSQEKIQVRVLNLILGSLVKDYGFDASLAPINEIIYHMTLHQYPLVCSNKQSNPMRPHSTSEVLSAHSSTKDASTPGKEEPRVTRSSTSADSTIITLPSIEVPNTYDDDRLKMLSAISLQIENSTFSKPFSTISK
Assay: PBM E-score (8-mer binding enrichment) (E-score (-0.5 to 0.5)); higher = stronger / more preferred TF binding; most listed sequences are background and not binding sites
Settings: protein concentration: 200 nM; construct: GST-full length
Outline: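 GST-tagged yeast TFs (full-length or DNA-binding domain) were made by PURExpress in vitro transcription/translation and applied at about 100-200 nM to universal all-10-mer Agilent arrays. The arrays were made double-stranded by primer extension, on fresh or once-stripped slides. Bound protein was detected with fluorescent anti-GST, and scans were normalised with masliner. Each ungapped eight-base word, pooled with its reverse complement, received an E-score (modified Wilcoxon-Mann-Whitney statistic) from the Universal PBM Analysis Suite.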

Point of comparison: ACTATAAT, “PBM E-score” value 0.283. Against it:
- TGTACGAA — lower, -0.0717
- GTTATATA — lower, 0.0615
- CCGCGCGA — lower, -0.0349
- ATCAACTC — lower, 0.18
- CTCGAGAC — lower, 0.163
- CTATCGGC — lower, -0.0556
- CGTTGTGC — lower, -0.0189
- AAGGCGAC — lower, -0.102
- ACGGCAGT — lower, -0.135
- CACACTCG — lower, 0.191
- CAGCTGAC — lower, 0.195
- GCAGGAGC — lower, -0.189
- CACGTCGC — lower, -0.152
- ATCCACAA — lower, 0.0894
- ATTCCTTC — lower, -0.0273
- GAGATATA — lower, 0.025
- AGTTGTGA — lower, 0.195
- AATACGGC — lower, -0.0116
- ACGAATAC — lower, 0.081
- GGAAACAA — lower, -0.154
- ACACCATG — lower, -0.0612
- CCAAACAA — lower, -0.00311
- CCTTGTAA — lower, -0.157
- ATTATTGC — lower, 0.0714
- CCGCCCGC — lower, -0.148
- GATCAGAC — lower, 0.0134
- AAGCCTCG — lower, -0.15
- TAGATTAA — lower, 0.275
- AGACTCTA — lower, 0.267
- CCCGGCTC — lower, -0.249
- CCTTCGAA — lower, -0.0709
- CGAGCGTC — lower, -0.155
- ACACTAAT — lower, 0.0115
- CGGCTGTC — lower, -0.231
- CCCCTGTA — lower, -0.105
- AACAATCC — lower, 0.0918
- CAATCAAA — lower, 0.142
- CCCAACAC — lower, -0.294
- CACTATGA — lower, 0.193
- AGGAAATC — lower, 0.0855
- CCACAAAA — lower, -0.0612
- ACGTTGCG — lower, -0.176
- CCTGTAAC — lower, -0.132
- GCCATAGC — lower, -0.0768
- AAATCATC — higher, 0.403
- AAAAATGT — lower, -0.122
- AGACTCTG — higher, 0.301
- AAGAGGCA — lower, -0.0452
- AAGTAGCT — lower, -0.154
- GTTGTATA — lower, -0.0846
- AGAACAAG — lower, -0.0488
- AATGATCC — lower, -0.00231
- CACGTGCC — lower, -0.137
- AGTTAGAG — lower, 0.143
- CTGTTTCC — lower, -0.201
- CCAAGCAA — lower, -0.173
- GTTAGTGA — lower, 0.171
- AGAATTGA — lower, 0.0843
- ACGTGTGC — lower, -0.194
- AAAGTCGG — lower, -0.0666
- AGGTCTGA — lower, 0.108
- AGCAGTGG — lower, -0.244
- GACGGAAC — lower, 0.0216
- TTATCCAA — lower, 0.193
- AACGCCGA — lower, -0.0821
- CTGCGACC — lower, -0.141
- AGCGGAAC — lower, -0.0183
- ATAGCGGA — lower, -0.0727
- GGACAATA — lower, -0.0724
- CTAGCTTA — lower, 0.112
- GACAGCGC — lower, -0.089
- ACTCGAGG — lower, -0.00534
- AGAAAAAT — lower, 0.053
- CCTTGCCG — lower, -0.189
- CTTTCATC — lower, -0.00122
- TCATACGA — lower, 0.139
- CGCGGCCC — lower, -0.378
- GAGCTGAC — higher, 0.293
- CTTTAGCA — lower, -0.154
- CGGAAGAC — lower, 0.0876
- ACATGTGG — lower, 0.119
- AAGTTGGA — lower, 0.0501
- GCCTTAAA — lower, 0.0855
- CATCAGAC — lower, 0.228
- CACTATTA — lower, 0.0522
